# Measured values reported in paper PMC4336329 (PLoS ONE, 2015).
# The whole screen tested about 310,000 compounds, of which about 14,000 (4.5%) showed an effect of 50% or more. The effect is printed as a negative number. The list shows a part of the results.
# Target: human ether-à-go-go-related gene (hERG) potassium channel (human, UniProt Q12809)
# Experiment: primary screen, population patch clamp on CHO cells stably expressing hERG
# 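Further: peak tail current of the secondary pulse compared with the same well before compound.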
# Sequence of human ether-à-go-go-related gene (hERG) potassium channel (Q12809 whole entry, looked up): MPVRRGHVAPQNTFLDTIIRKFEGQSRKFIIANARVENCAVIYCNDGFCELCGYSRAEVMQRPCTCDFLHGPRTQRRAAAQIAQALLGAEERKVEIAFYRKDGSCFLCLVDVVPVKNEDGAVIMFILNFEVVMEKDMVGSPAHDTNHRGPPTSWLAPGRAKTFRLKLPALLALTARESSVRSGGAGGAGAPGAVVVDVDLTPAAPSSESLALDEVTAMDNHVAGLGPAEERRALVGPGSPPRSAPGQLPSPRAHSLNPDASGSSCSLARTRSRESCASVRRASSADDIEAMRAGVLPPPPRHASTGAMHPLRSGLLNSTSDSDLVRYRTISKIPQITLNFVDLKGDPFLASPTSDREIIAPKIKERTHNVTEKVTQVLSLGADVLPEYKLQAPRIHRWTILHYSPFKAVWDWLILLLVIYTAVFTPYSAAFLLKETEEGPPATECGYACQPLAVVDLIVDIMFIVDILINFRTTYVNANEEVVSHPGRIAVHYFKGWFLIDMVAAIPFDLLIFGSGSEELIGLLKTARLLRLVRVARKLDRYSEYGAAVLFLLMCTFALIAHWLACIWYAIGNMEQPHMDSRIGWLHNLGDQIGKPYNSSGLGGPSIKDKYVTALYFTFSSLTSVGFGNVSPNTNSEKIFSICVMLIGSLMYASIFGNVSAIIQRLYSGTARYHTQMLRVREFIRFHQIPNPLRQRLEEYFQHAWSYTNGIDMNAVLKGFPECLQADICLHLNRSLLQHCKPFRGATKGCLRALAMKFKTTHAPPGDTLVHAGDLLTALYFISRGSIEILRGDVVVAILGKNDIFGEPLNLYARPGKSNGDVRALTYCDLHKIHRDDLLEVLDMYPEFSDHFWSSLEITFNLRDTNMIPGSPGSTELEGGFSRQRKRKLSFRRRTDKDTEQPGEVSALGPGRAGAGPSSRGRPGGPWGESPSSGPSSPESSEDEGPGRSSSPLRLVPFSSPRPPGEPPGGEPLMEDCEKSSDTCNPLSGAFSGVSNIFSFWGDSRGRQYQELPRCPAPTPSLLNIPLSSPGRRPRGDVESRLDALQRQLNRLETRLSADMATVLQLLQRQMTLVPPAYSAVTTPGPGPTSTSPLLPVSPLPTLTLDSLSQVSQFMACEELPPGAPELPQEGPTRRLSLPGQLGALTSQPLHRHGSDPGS
row,SMILES,"hERG current change (%, negative = inhibition) at 10uM"
1,O=C(NCc1ccc(Cl)cc1)C1CCCO1 (stereo not shown),23.6%
2,CCOC(=O)c1c(NC(=O)c2ccc(S(=O)(=O)N(C)CC3CCCO3)cc2)sc2c1CC(C)(C)NC2(C)C (stereo not shown),-6.96%
3,CCN(c1cccc(C)c1)S(=O)(=O)c1ccc(OC)c([N+](=O)[O-])c1,13.5%
4,CCOC(=O)C(c1ccccc1)C(Nc1ccccc1)c1ccccn1 (stereo not shown),8.6%
5,CN1CCN(CCOCCOc2ccc(Br)cc2Cl)CC1.O=C(O)C(=O)O,-14.2%
6,CCOC(=O)c1c(C)n(-c2ccc(OC)cc2)c2c(C/C(C)=N/O)c(Br)c(OC)c(O)c12,1.92%
7,CCOC(=O)c1[nH]c(C)c(/C(O)=C2\C(=O)C(=O)N(CCN(C)C)C2c2ccncc2)c1C (stereo not shown),17.1%
8,Cc1cccc(NC(=O)CSc2nncn2-c2ccccn2)c1,-1.31%
9,COc1ccc(/C=N/NC(=O)C2COc3ccccc3O2)cc1OC (stereo not shown),27.9%
10,CCOC(=O)C1CCN(C(=O)COc2cc(C)c(Br)c(C)c2)CC1,-43.2%
11,CC1CCCC(NC(=O)CSc2nnc(N)s2)C1C (stereo not shown),9.19%
12,CC(=O)c1sc(NC(=O)C2COc3ccccc3O2)nc1C (stereo not shown),-10.2%
13,Cc1cc(-c2ccccc2)n[nH]1,10.5%
14,CCOc1ccccc1NC(=S)N1CCC(NC(=O)NC23CC4CC(CC(C4)C2)C3)CC1,-13.7%
15,Cc1ccc(/C=C/C(=O)N2CCN(c3ncccn3)CC2)o1,2.26%
16,N/C(COc1ccc(Cl)cc1)=N\NS(=O)(=O)c1ccccc1,7.04%
17,CC(=O)N/C(N)=N/c1nc2cc(C)ccc2o1,2.68%
18,Cc1ccc(-c2cc(-c3nnc(SCC(=O)NCC(C)C)n3N)c3ccccc3n2)cc1,-3.71%
19,CC(OC(=O)Cn1cnc2c1c(=O)n(C)c(=O)n2C)C(=O)NC1CCCCC1C (stereo not shown),15.4%
20,NC(=O)NCc1ccc(Cl)cc1,10.8%
21,COc1ccc(OCc2nnc(SCC(=O)N3CCCc4ccccc43)n2-c2ccc(C)cc2)cc1,-3.12%
22,Cc1cccc(NC(=O)N(C)Cc2cccs2)c1,-1.06%
23,CSc1cc(-c2ccccc2)n(Cc2ccccc2Cl)c(=O)c1C#N,12%
24,CCc1ccccc1NC(=O)COC(=O)C1CC(=O)N(c2ccc(F)cc2)C1 (stereo not shown),-3.96%
25,CCOC(=O)c1c(-c2ccsc2)csc1N,-15.4%
